From PubChem BioAssay AID1745853 (National Center for Advancing Translational Sciences (NCATS), 2022)
This is one part of the list. Further columns of the screen follow, without active or inactive calls.

Key:
Assay in all cases: Primary Screen for Target Class Profiling of Small Molecule Inhibitors of Methyltransferases
[1] = molecular target: Glycine N-methyltransferase (Homo sapiens) (UniProt Q14749); details: purified enzyme, MTase-Glo SAH luminescence; measured here: GNMT inhibition; at 40 µM; stronger effect = lower value
Procedure, shortened: (§1)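 Each enzyme was reacted with SAM and its substrate, with compounds tested once at 40 uM; SAH formed was read by MTase-Glo luminescence.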

[2] = molecular target: Guanidinoacetate N-methyltransferase (Homo sapiens) (UniProt Q14353); details: purified enzyme, MTase-Glo SAH luminescence; measured here: GAMT inhibition; at 40 µM; stronger effect = lower value
Procedure, shortened: as §1

[3] = molecular target: Histamine N-methyltransferase (Homo sapiens) (UniProt P50135); details: purified enzyme, MTase-Glo SAH luminescence; measured here: HNMT inhibition; at 40 µM; stronger effect = lower value
Procedure, shortened: as §1

[4] = molecular target: Nicotinamide N-methyltransferase (Homo sapiens) (UniProt P40261); details: purified enzyme, MTase-Glo SAH luminescence; measured here: NNMT inhibition; at 40 µM; stronger effect = lower value
Procedure, shortened: as §1

[5] = molecular target: Phenylethanolamine N-methyltransferase (Homo sapiens) (UniProt P11086); details: purified enzyme, MTase-Glo SAH luminescence; measured here: PNMT inhibition; at 40 µM; stronger effect = lower value
Procedure, shortened: as §1
% is scaled to controls: 0 for no effect and ±100 for the full control effect.

| Compound | activity change, negative = inhibition [1] [%] | activity change, negative = inhibition [2] [%] | activity change, negative = inhibition [3] [%] | activity change, negative = inhibition [4] [%] | activity change, negative = inhibition [5] [%] |
| --- | --- | --- | --- | --- | --- |
| COc1ccccc1NC(=O)CSc1nnc2n(CCC(C)C)c(=O)c3ccccc3n12 | -3.62 | 0 | 4.77 | -8.88 | 1.1 |
| CCCOc1ccc(CN2C(=O)c3cc4sccc4n3CC2(C)C(=O)NC2CCCCCC2)cc1 (stereo not given) | -10.1 | 2.62 | -4.06 | -6.56 | -4.75 |
| CC(C)CCNC(=O)Cn1c(=O)oc2cc(S(=O)(=O)N3CC(C)CC(C)C3)ccc21 (stereo not given) | -11.1 | -1.27 | -3.67 | -7.55 | -15.9 |
| CCCC1CCC(c2ccc(C(=O)COC(=O)C(Cc3c[nH]c4ccccc34)NC(=O)c3ccc(C(C)(C)C)cc3)cc2)CC1 (stereo not given) | -4.83 | 0.921 | -13.5 | -18 | -8.73 |
| CC(C)OCCCNC(=O)C1c2c(n(C)c3ccccc23)SCC(=O)N1c1ccc(Cl)cc1 (stereo not given) | -0.679 | -2.6 | 3.39 | -11 | -3.48 |
| COc1cccc(CNC(=O)CSc2nnc3n(CCc4ccccc4)c(=O)c4ccccc4n23)c1 | -2.39 | 1.55 | 5.74 | -9.22 | -1.62 |
| O=C1NC(=O)C(c2cn3c4c(cccc24)CCC3)C1c1c[nH]c2ccccc12 (stereo not given) | -6.58 | 0.634 | 7.25 | -19.4 | -1.27 |
| CC(C)N(CCCCOCC(=O)NS(C)(=O)=O)c1cnc(-c2ccccc2)c(-c2ccccc2)n1 | -25 | 0.011 | -6.76 | -26.1 | -6.17 |
| CC1(C(=O)NC2CCCCCC2)Cn2c(nc3ccccc32)C(=O)N1Cc1cccc(Cl)c1 (stereo not given) | -6.03 | 1.68 | -3.75 | -0.59 | -1.85 |
| COc1cccc(CNC(=O)c2ncn3c2C(=O)N(C2CC2)C(C)(C(=O)NCc2cccc(C)c2)C3)c1 (stereo not given) | 1.87 | 1.78 | 13.4 | 7.91 | 9.59 |
| COc1ccc(S(=O)(=O)N2C[C@@H](F)C[C@H]2C(=O)N2CCOCC2)cc1 | -7.03 | -7.89 | -5.32 | -14.7 | -7.94 |
| COc1ccc(C2COc3cc(O)ccc3C2)c(O)c1 (stereo not given) | -2.5 | 6.15 | 7.13 | -15.2 | 6.7 |
| COc1ccc(OC)c(S(=O)(=O)N2CCC3(CCC3N3CCOCC3)CC2)c1 (stereo not given) | 0.022 | 0 | 4.06 | 0.207 | 4.51 |
| Cc1ccc(N2C(=O)CSc3c(c4ccccc4n3C)C2C(=O)NCCCOC(C)C)cc1C (stereo not given) | -8.87 | 0 | 6.29 | 2.84 | 4.67 |
| c1ccc(-c2oc3ncnc(NC[C@@H]4CCCO4)c3c2-c2ccccc2)cc1 | -58.4 | -42.9 | -57.3 | -58.8 | -60 |
| COCC1CN(C(C)=O)CC12CCN(S(=O)(=O)c1ccc(OC)cc1)CC2 (stereo not given) | -1.51 | -1.73 | 0.207 | -7.17 | -2.67 |
